In PubChem BioAssay AID1508624 (National Center for Advancing Translational Sciences (NCATS), 2021):
The whole screen tested about 48,000 compounds, of which about 120 (0.25%) were called active. Another 4% or so got no clear call; they are omitted. Calls come from the whole dose curve; as a rule, active = well fitted activation curve with a large enough effect; inconclusive = small, poorly fitted or top-dose-only effect, or another doubt; inactive = no such curve, though single readings can be large or run the other way. The list shows a part of the results.

Experiment: Primary qHTS for Identification of Small Molecule Activators of Huntingtin-Antisense Promoter Activity; note: nearly all actives have a fitted effect of over 55% in size
Conditions: HEK293 HTT-AS promoter firefly luciferase reporter (activity 0% = vehicle and -100% = no light), 24 h; series mostly up to 57.5 µM; activity change, positive = activation: at the top concentration
Procedure, shortened: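 HEK293 Fluc reporter, 2,500 cells/well, 24 h pre-culture; cpds up to 57.5 uM final, 24 h 37 degrees C; Dual-Glo, 10 min RT; normalized vehicle = 0%, zero RLU = -100%.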

Activity change, positive = activation, inactive:
CN1CCN(C(=O)C(=O)Nc2c3c(nn2-c2ccc(F)cc2)CSC3)CC1 -7.19%
CSc1ccc(CCNC(=O)C2CCN(c3nc4ccccc4nc3C(F)(F)F)CC2)cc1 2.77%
O=C(Cn1c(=O)n(Cc2ccc3c(c2)OCO3)c(=O)c2oc3ccccc3c21)Nc1ccccc1 -17.9%
Cc1ccccc1CNC(=O)C1CCN(c2nnc(C)c3c(C)n(-c4ccccc4)nc23)CC1 -9.93%
CCc1ccc(-c2nc3ccc(Br)cc3c(C(=O)O)c2C)s1 -22.9%
COC(=O)c1ccc(NC(=O)c2c(NCc3ccc(C)o3)sc3c2CCCC3)cc1 -17.9%
CCn1c(C(=O)NCc2cccc(Br)c2)cc2oc3ccccc3c21 -31.6%
CCc1nnc(NC(=O)c2cc(=O)c3cc(C)c(C)cc3o2)s1 13.6%
COc1cc(-c2noc(-c3cc4cc(F)ccc4oc3=O)n2)cc(OC)c1OC -9.35%
CN1C(=O)C2(c3ccccc31)N(c1ccccc1)C(=O)CS2(=O)=O (stereo unspecified) -12.5%
Cc1ccc(Cn2cccc2C2=NC(C)(C)CO2)cc1 -10.3%
COc1ccccc1OC(C)C(=O)NCC1(N2CCOCC2)CCCCC1 (stereo unspecified) -19.5%
CC1CCN(S(=O)(=O)c2ccc3c(c2)N(CC(=O)NC(C)C)C(=O)CS3)CC1 -19.2%
Cc1ccc(OC(=O)c2cc(-c3ccc4c(c3)OCCO4)on2)c(C)c1 6.42%
CCc1nn(CCCC(=O)NCc2ccccc2Br)c(=O)c2cc3occc3n12 -7.01%
CCCCOc1ccc(-c2nonc2NC(=O)c2ccco2)cc1 -15.1%
COc1ccc(NC(=O)CCNS(=O)(=O)c2cccc3nonc23)cc1 -5.88%
CCCC(=O)N1c2ncnn2C2(CCCCC2)[C@@H]2CCCC[C@@H]21 -24.8%
Cc1ccc(OCC(=O)NCC2(N3CCN(C)CC3)CCCCC2)cc1C -11.1%
Cc1ccc(S(=O)(=O)NCCc2nnc3ccc(SCc4ccccc4C)nn23)cc1 -31.8%
CC(=O)O[C@@]12CO[C@H]1C[C@H](O)[C@@]1(C)C(=O)[C@H](O)C3=C(C)[C@@H](OC(=O)C(O)[C@@H](NC(=O)OC(C)(C)C)c4ccccc4)C[C@@](O)([C@@H](OC(=O)c4ccccc4)[C@@H]21)C3(C)C (stereo partly specified) -28.6%
COc1ccc(N2CCN(C(=O)Cn3cnc4nc5c(cc4c3=O)CCCC5)CC2)cc1 26.2%
COc1ccc(/C=C\c2onc(C)c2S(=O)(=O)N2CCC(C(=O)Nc3ccccc3OC)CC2)cc1 -29.9%
COc1ccc(OC)c(NC(=O)CSc2c3c(nc4ccccc24)CCCC3)c1 -58.8%
CCOc1ccccc1NC(=O)C1CCN(S(=O)(=O)c2c(C)noc2/C=C/c2ccc(C)cc2)CC1 -6.79%
CCOc1ccc(C(=O)NCCn2cc(SCC(=O)NCCc3ccc(OC)c(OC)c3)c3ccccc32)cc1 -38.7%
